In PubChem BioAssay AID463173 (ICCB-Longwood Screening Facility, Harvard Medical School, 2010) one finds survival data, which are given here for 91 compounds.

Out of some 52,000 compounds screened, about 1,700 (3.3%) were called active. Cut-off read from the data, not from the text of the source: active = survival mostly below about 52% (no sharp cut-off); inactive = mostly above about 56%. This is one part of the list.

The subject of the test is Wild type. In words: S. aureus survival, RN4220 and DeltatarO strains – OD600, teichoic acid synthesis inhibitors, primary screen (AID 463173). To be noted: S. aureus RN4220 wild type/DeltatarO growth, OD600, 18 h, active compounds read low, screened at 18.75 µg/mL (by protocol).
As to `C=CCc1c(C)nc2nc(SCC(=O)Nc3ccccc3CC)nn2c1C`, the survival is inactive: 47%.
For `CCOc1ccc(CCNC(=O)CN2CCN(Cc3ccc(F)cc3Cl)C2=O)cc1OCC` the value was inactive: 72%.
For `CCCn1c(=O)n(-c2ccccc2)c(=O)c2sc3ccccc3c21` the value was inactive: 93%; for `CN(C(=O)CCNC(=O)Cn1cnc2ccccc2c1=O)c1ccccc1F`, inactive: 79%; for `COC(=O)CN1C(=O)CSc2ccc(S(=O)(=O)Nc3ccc(Cl)cc3C)cc21`, inactive: 130%.
Take `CCCOc1ccccc1C(=O)N1CCC(c2nc3ccccc3s2)CC1`: the survival is inactive: 68%.
For the compound `CCOC(=O)CSc1nc2cc3c(cc2c(=O)n1CCCC(=O)NCc1ccc2c(c1)OCO2)OCO3`, the survival was inactive: 84%.
With `CC(C)Cc1nn2c(=O)cc(COC(=O)c3cccc(NC(=O)CCc4ccccc4)c3)nc2s1`, the survival was inactive: 75%.
Consider `C=Cc1ccc(CSc2nc(-c3ccc(OC)cc3)nc3c2Cc2c(CO)cnc(C)c2O3)cc1`, for which the survival is inactive: 83%.
On to `Cc1ccc2ccc(C(Nc3ccccn3)c3ccccc3)c(O)c2n1` (stereo unspecified), for which the survival was inactive: 69%.
For the compound `COc1ccccc1OCc1ccoc1C(=O)O`, the survival was inactive: 115%.
As to `Clc1ccc(CCNc2ncnc3c2c(-c2ccccc2)cn3-c2ccccc2)cc1`, the survival was inactive: 70%.
For the compound `COc1ccc(C(=O)CN2C(=O)N(c3cc(C)cc(C)c3)S(=O)(=O)c3ccccc32)cc1`, the survival is inactive: 76%.
As to `COc1ccccc1C(=O)Nc1nc2ccc(S(=O)(=O)N3CCCC3)cc2s1`, the survival was inactive: 45%.
As to `NCCc1nnc(SCc2ccc(Cl)cc2)o1`, the survival is inactive: 148%.
With `Cc1cccc(NCc2ccc(N(C)C)cc2)n1`, the survival was inactive: 99%.
For `CCCCC(=O)Nc1cccc(OCc2cc(=O)n3ccccc3n2)c1` the value was inactive: 72%; for `Cc1ccc(Nc2c(-c3ccc(C)cc3)nc3cnccn23)cc1`, inactive: 23%.
For `COc1ccccc1CNC(=O)Cn1ncc2c(=O)oc3ccc(C)cc3c21` the value was inactive: 86%.
`Cc1ccccc1CS(=O)(=O)Cc1ccc(C(=O)NCCc2ccccc2)o1`: the survival was inactive: 75%.
For `CCOC(=O)c1ccc(Nc2c(-c3ccc(O)cc3)nc3nc[nH]n23)cc1` the value was inactive: 81%.
Turning to `COc1cc(C(=O)Nc2cc(C)ccc2OCc2cc(=O)n3cc(C)sc3n2)cc(OC)c1OC`, the survival was inactive: 70%.
Regarding `O=C(OC1OCCOC1OC(=O)C1CCCCC1)C1CCCCC1` (stereo unspecified), the survival is inactive: 104%.
For `CC(C)c1ccc(CNCCSc2nnnn2C)cc1` the value was inactive: 85%; for `Cc1ccc(S(=O)(=O)N=C2SCCCS2)cc1`, inactive: 102%; for `CCOC(=O)C1CCCN(c2ncnc3c2cnn3-c2ccc(C)c(Cl)c2)C1` (stereo unspecified), inactive: 75%.
Take `Cc1ccc(NC(=O)CSc2nc3c(c(=O)[nH]2)CN(Cc2ccc4c(c2)OCO4)CC3)cc1C`: the survival was inactive: 80%.
Turning to `Cn1c(=O)c2c(SCC(=O)NCc3ccco3)nc(-c3ccccc3Cl)nc2n(C)c1=O`, the survival was inactive: 65%.
For `CCOC(=O)c1ccc(NC(=O)c2oc3ccc4c(c3c2C)C(=O)CC(C)(CC)O4)cc1` (stereo unspecified) the value was inactive: 94%.
For `Cc1nc2c(-c3ccccc3)c(C)nn2c(C)c1CCC(=O)NCc1cccc(Cl)c1` the value was inactive: 134%; for `Cc1nnc(NC(=O)c2nc(S(=O)(=O)Cc3ccccc3)ncc2Cl)s1`, inactive: 69%; for `CCOc1ccc(NC(=O)C(C)Sc2nnc3cc(C)c4ccccc4n23)cc1` (stereo unspecified), inactive: 75%.
In the case of `CCc1ccccc1NC(=O)c1cc(S(=O)(=O)NCCc2ccc(OC)c(OC)c2)ccc1F`, the survival is active: 0%.
For the compound `COc1ccc(OCC(=O)Nn2cnnc2)cc1`, the survival was inactive: 102%.
Consider `COc1ccc(-c2nc3cnccn3c2NCc2ccc3c(c2)OCO3)cc1CN1CCOCC1`, for which the survival was inactive: 124%.
For `CC(=O)Nc1c(C)nn(-c2ccccc2)c1N1CCC(C(=O)Nc2cc(Cl)ccc2C)CC1`, the survival is inactive: 82%.
As to `Cc1cccc(NC(=O)C(=O)NCC(c2cccnc2)N2CCOCC2)c1` (stereo unspecified), the survival is inactive: 95%.
`CCCOc1ccc(C2c3c(-c4ccccc4O)n[nH]c3C(=O)N2Cc2ccncc2)cc1OCC` (stereo unspecified): the survival was inactive: 93%.
As for `CS(=O)(=O)N1CCN(C2CCCCC2)CC1`, the survival was inactive: 107%.
With `COc1ccc(C)cc1NC(=O)C(=O)NCCc1csc(-c2ccc(C)cc2)n1`, the survival is inactive: 66%.
As for `Cc1ccc(CCNC(=O)C2CCCN(Cc3nc(-c4cccc(Cl)c4)oc3C)C2)cc1` (stereo unspecified), the survival was active: 9%.
As to `CCOC(=O)c1c(C)c(C(=O)NCCc2ccc(OC)cc2)c(C)n1C`, the survival was inactive: 88%.
For `Cc1cccc(CNC(=O)c2cnc3sc(N4CCCCC4)nn3c2=O)c1` the value was inactive: 132%; for `CCc1nn(CC(=O)Nc2cccc(C)c2C)c(=O)c2cc3sccc3n12`, inactive: 83%; for `CN(C(=O)CSc1cn(CC(=O)N2CCCCC2)c2ccccc12)c1ccccc1`, inactive: 90%.
As to `COc1ccc(/C=C/c2nc(C#N)c(N3CCN(c4ccccc4)CC3)o2)cc1OC`, the survival is inactive: 112%.
`O=C(Cc1ccc(F)cc1)N1CCC(c2nc3c(nnn3Cc3ccc(Cl)cc3)c(=O)[nH]2)CC1`: the survival is inactive: 33%.
Regarding `COc1ccc(-c2noc(C3CC(=O)N(c4cc(C)cc(C)c4)C3)n2)cc1` (stereo unspecified), the survival is inactive: 81%.
On to `CCC(Oc1ccccc1)C(=O)Nc1ccccc1OCc1cc(=O)n2ccccc2n1` (stereo unspecified), for which the survival was inactive: 71%.
Consider `CCC(C)NC(=O)c1ccc2c(c1)N(Cc1ccccc1)C(=O)c1ccccc1S2(=O)=O` (stereo unspecified), for which the survival is inactive: 85%.
For `Cc1ccc2nc(-c3ccccn3)c(Nc3ccc(F)cc3)n2c1`, the survival is active: 16%.
Regarding `CN1CCN(CCCNC(=O)c2cnn(-c3ccccc3)c2C2CCN(C(=O)OC(C)(C)C)CC2)CC1`, the survival was inactive: 123%.
For the compound `CC1=C(C(=O)Nc2ccc(Cl)cc2)C(C(C)C)n2nc(SCc3cccc(C)c3)nc2N1` (stereo unspecified), the survival is inactive: 92%.
For the compound `CC(C)(C)C1CCc2onc(C(=O)Nc3sc4c(c3C(N)=O)CCCC4)c2C1` (stereo unspecified), the survival was inactive: 68%.
For `NC(=O)c1cc(S(=O)(=O)NCC2CCC(C(=O)Nc3cccc(Cl)c3)CC2)cs1` (stereo unspecified) the value was inactive: 71%.
Regarding `Cc1c(Cl)cccc1NC(=O)CCS(=O)(=O)c1ccc(Br)s1`, the survival was inactive: 90%.
For the compound `CCCc1nnc(NC(=O)c2nc(S(=O)(=O)Cc3ccc(C)cc3)ncc2Cl)s1`, the survival was inactive: 47%.
As for `O=C(c1ccc2c(Cl)c3c(nc2c1)CCCC3)N1CCN(c2ccccc2)CC1`, the survival was active: 0%.
For `Cc1c2cnn(-c3ccccc3)c(=O)c2c(C)n1CCCC(=O)Nc1ccc(F)cc1F`, the survival is inactive: 77%.
On to `Cc1ccc(NC(=O)CSc2nc3ccccc3c3nc(CCn4c(C)nc5ccccc54)nn23)cc1F`, for which the survival is inactive: 68%.
Take `CCOc1ccccc1NS(=O)(=O)c1c(-c2ccc(C)cc2)csc1C(=O)OC`: the survival was inactive: 87%.
For `Cc1ccc2c(c1)nnn2C1CCN(C(=O)c2ccccc2)CC1`, the survival is inactive: 107%.
As for `CCOC(=O)c1cc(-c2ccccc2)n(CC(=O)NCc2ccccc2OC)c1C`, the survival is inactive: 78%.
On to `Cc1ccc(C)c(NC(=O)CCNS(=O)(=O)c2ccc3c(c2)CCCC(=O)N3)c1`, for which the survival is active: -6%.
Consider `CN(C(=O)CSc1nnc2[nH]c(=O)cc(-c3ccccc3)n12)c1ccccc1`, for which the survival was inactive: 136%.
As for `COCCNC(=O)c1ccc2c(c1)N(Cc1cccc(Cl)c1)C(=O)c1ccccc1S2=O` (stereo unspecified), the survival is inactive: 69%.
In the case of `O=c1cc(O)c2ccccc2[nH]1`, the survival is inactive: 135%.
`Cn1c(=O)n(C)c2cc(S(=O)(=O)Nc3ccccc3C(=O)O)ccc21`: the survival was inactive: 79%.
In the case of `Cc1ccc(NCC(=O)N=Nc2c(O)[nH]c3ccccc23)cc1`, the survival is inactive: 114%.
Regarding `Fc1ccc(CNc2ncnc3c2c(-c2ccccc2)cn3-c2ccccc2)cc1`, the survival was inactive: 136%.
Regarding `CC1CC(C)CN(CCC(=O)Nc2ccccc2F)C1` (stereo unspecified), the survival is inactive: 108%.
For `Cc1ccc(C)c(N2CCN(C(=O)CN3C(=O)CSc4c3c(C)nn4-c3ccccc3)CC2)c1` the value was inactive: 69%; for `O=C(Nc1ccc(F)c(F)c1)C1CCCN(S(=O)(=O)c2cccc3nonc23)C1` (stereo unspecified), inactive: 138%; for `CC1(C)Cc2c(ccc3ccccc23)C(=O)N1`, inactive: 113%.
Regarding `O=C(NCn1nc(-c2ccccc2)nc1-c1ccccc1)c1cccnc1`, the survival is inactive: 109%.
For `Cc1cc2cc3c(cc2nc1SCCN1CCCC1)OCCO3` the value was inactive: 112%; for `Cc1cc(C)c2c(=O)cc(CSCC(=O)Nc3nnc(C)s3)[nH]c2c1`, inactive: 138%; for `COc1ccc(N(C)C(=O)NCc2noc3ccc(C)cc23)c(OC)c1`, inactive: 90%.
For `CCCNC(=O)Nc1cc(C(=O)NCc2cccc(OCC)c2)ccc1N1CCCC1` the value was inactive: 60%; for `CC(C)(C)C(=O)NC1CCN(CC(=O)Nc2ccccc2)CC1`, inactive: 103%; for `Cc1cccc(NC(=O)C2CCCN(S(=O)(=O)c3c(C)noc3/C=C/N(C)C)C2)c1C` (stereo unspecified), inactive: 71%.
As to `CC(C)(C)C1CCc2nc(NC(=O)Cc3ccc(Cl)cc3)sc2C1` (stereo unspecified), the survival is inactive: 60%.
Take `CCC(Sc1nncn2c1cc1sccc12)C(=O)Nc1cccc(OC)c1` (stereo unspecified): the survival is inactive: 74%.
With `COc1ccc(C(=O)CCC(=O)Nc2ccccc2C)cc1`, the survival is inactive: 124%.
As for `COc1ccccc1NC(=O)CSCc1cc(=O)c2c(C)cc(C)cc2[nH]1`, the survival was inactive: 99%.
Consider `Cc1ccc(CN2CCN(C3CCN(C(=O)OC(C)(C)C)CC3)C(=O)C2=O)cc1`, for which the survival is inactive: 124%.
For `CC(C)(C)c1ccc(C(=O)Nc2ccccc2C(=O)OCc2cc(=O)n3ccsc3n2)cc1` the value was inactive: 80%; for `CCC(=O)N1CCc2cc(Br)cc(S(=O)(=O)CCC(=O)Nc3ccccc3C)c21`, inactive: 74%; for `Cc1cc2nc3c(=O)n(C)c(=O)n(C)c3nc2cc1N=CN(C)C`, inactive: 77%.
On to `CCOC(=O)CC(NC(=O)Cn1nnc(-c2ccccc2C)n1)c1ccc(OC)cc1` (stereo unspecified), for which the survival was inactive: 75%.
For `COc1ccc(-c2nc(SCC(=O)NCCCc3ccccc3)n[nH]2)cc1` the value was inactive: 69%.
